The whole screen tested about 310,000 compounds, of which about 14,000 (4.5%) showed an effect of 50% or more. Effects have a minus sign here. This is one part of the list.
target: human ether-à-go-go-related gene (hERG) potassium channel (human, UniProt Q12809); experiment: primary screen, population patch clamp on CHO cells stably expressing hERG
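Further: peak tail current of the secondary pulse compared with the same well before compound.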

Chain of human ether-à-go-go-related gene (hERG) potassium channel (Q12809 whole entry, looked up): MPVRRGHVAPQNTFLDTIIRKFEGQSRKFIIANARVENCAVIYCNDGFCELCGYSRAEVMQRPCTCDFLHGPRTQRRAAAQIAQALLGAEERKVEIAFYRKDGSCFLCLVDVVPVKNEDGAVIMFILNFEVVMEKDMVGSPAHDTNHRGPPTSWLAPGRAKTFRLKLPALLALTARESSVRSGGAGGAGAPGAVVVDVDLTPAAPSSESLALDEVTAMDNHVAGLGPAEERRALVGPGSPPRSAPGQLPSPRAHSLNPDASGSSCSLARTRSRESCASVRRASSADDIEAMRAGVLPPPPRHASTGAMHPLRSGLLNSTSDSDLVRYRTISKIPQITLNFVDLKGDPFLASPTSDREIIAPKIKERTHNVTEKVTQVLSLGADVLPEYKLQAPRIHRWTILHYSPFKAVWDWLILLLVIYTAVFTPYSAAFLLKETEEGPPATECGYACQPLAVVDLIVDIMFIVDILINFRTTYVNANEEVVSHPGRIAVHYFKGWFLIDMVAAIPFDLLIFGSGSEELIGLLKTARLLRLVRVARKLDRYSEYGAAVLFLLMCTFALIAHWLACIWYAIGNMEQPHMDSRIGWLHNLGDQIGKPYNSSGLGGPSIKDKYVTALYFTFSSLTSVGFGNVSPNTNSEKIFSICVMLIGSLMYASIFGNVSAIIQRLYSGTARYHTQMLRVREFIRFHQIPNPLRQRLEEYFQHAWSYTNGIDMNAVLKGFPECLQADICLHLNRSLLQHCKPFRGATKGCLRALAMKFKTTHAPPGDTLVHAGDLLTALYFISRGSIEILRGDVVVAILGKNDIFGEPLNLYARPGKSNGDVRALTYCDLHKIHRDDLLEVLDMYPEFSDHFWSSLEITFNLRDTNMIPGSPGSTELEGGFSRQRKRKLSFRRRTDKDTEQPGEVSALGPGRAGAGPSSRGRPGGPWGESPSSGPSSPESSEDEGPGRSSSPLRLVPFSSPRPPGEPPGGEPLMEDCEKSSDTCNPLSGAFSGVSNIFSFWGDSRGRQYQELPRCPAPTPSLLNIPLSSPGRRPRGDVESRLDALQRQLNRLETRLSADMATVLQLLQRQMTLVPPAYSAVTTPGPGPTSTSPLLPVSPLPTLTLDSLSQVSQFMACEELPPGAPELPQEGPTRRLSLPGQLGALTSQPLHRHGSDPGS

Structure (SMILES)	hERG current change (%, negative = inhibition) at 10uM [%]
CC(=O)N1CCN(Cc2nc(-c3cccc(Cl)c3)no2)CC1	41.9
CSc1ncccc1C(=O)OCC(=O)NCc1ccccc1	-19.6
CC1CCC(C(C)C)C(OCC[N+](C)(C)C)C1 (centres unmarked)	4.82
Cc1ccc(-c2oc3ncnc(N)c3c2-c2ccc(C)cc2)cc1	-20.6
Cc1nc(SCC(=O)NCC2CCCO2)[nH]c(=O)c1C (centres unmarked)	10.3
CCn1ccc(C(=O)Nc2cccc(Cl)c2)n1	32.4
O=c1c(-c2ccc(F)cc2)[n+]([O-])c2ccccc2n1OCc1ccccn1	2.08
CC1CCc2cc(F)ccc2N1C(=O)CSc1nnc2c3ccccc3n(C)c2n1 (centres unmarked)	11
OCC[C@H]1C[C@H](O)[C@@H](O)[C@]2(CCCO2)O1	17.4
COc1cccc(NC(=O)C2CSC3(C)CCC(=O)N23)c1 (centres unmarked)	9.18
COc1cc(NC(=O)CCCNC(=O)Cn2cnc3sc4c(c3c2=O)CCCC4)cc(OC)c1OC	29.6
CCCCN(C(=O)CCC(=O)OCC(=O)NCc1ccccc1)c1c(N)n(CCC)c(=O)[nH]c1=O	4.08
O=C(O)CCCn1cc(NC(=O)COc2ccccc2[N+](=O)[O-])cn1	18
O=C(OCc1nnc(-c2ccccc2)o1)C1CC(=O)N(CCc2ccccc2)C1 (centres unmarked)	-31
Oc1ccccc1N1CCN(C(c2ccccc2)c2ccccc2)CC1	12.6
O=C(N[C@@H](Cc1ccccc1)C(=O)OCc1ccccc1)c1nc[nH]c1C(=O)N1CCc2ccccc2C1	3.1
COc1cccc(-c2nc(CS(=O)(=O)CC(=O)NC3CCCCC3C)c(C)o2)c1 (centres unmarked)	-8.76
COc1cccc(/C=N/NC(=O)COc2cccc3cccnc23)c1O	0.232
Cc1ccc(C(=O)C(C(=O)/C=C/c2ccccc2)=C2SCCCS2)cc1	3.51
O=S(=O)(c1ccccc1)c1nc(-c2ccc(F)cc2)oc1N1CCOCC1	2.21
Cc1cccnc1Oc1ncccc1N	13.8
Brc1cccc2sc(N3CCN(c4ccccc4)CC3)nc12	19.7

Structure (SMILES)	hERG current change (%, negative = inhibition) at 10uM [%]
O=C(Nc1ccc(-c2n[nH]c(=S)o2)cc1)c1ccccc1	15.6
O=S(=O)(Nc1ccc2c(c1)OCCO2)c1ccc(Br)s1	-5.95
CCOC(=O)c1cc(-c2ccc(F)cc2)n(CC(=O)NCc2cccnc2)c1C	-8.45
Cc1ccccc1OCC(O)CN1CCN(CC(O)COc2ccccc2C)C(C)C1.O=C(O)C(=O)O (centres unmarked)	-70.8
CCOC(=O)CNC(=O)CN1CCCN(S(=O)(=O)c2ccc(Br)s2)CC1	-47.2
COc1cccc(OC)c1OCCCN1CCOCC1	4.22
CC(=O)Nc1ccc2nc(C3CC3)n(Cc3ccc(Cl)cc3)c(=O)c2c1	4.19
Cc1c(-n2c(SCC(=O)N(C)C3CCS(=O)(=O)C3)nc3ccccc3c2=O)c(=O)n(-c2ccccc2)n1C (centres unmarked)	16.8
COc1ccc2c(c1)c(=O)oc1cc(OCC(=O)N3CCc4ccccc4C3)ccc12	-23.5
Cc1c(C(=O)N/N=C/c2cccnc2)sc(N)c1C#N	17.2
O=C(NCc1ccco1)Nc1ccc2nsnc2c1	10.7
COc1ccc(NC2CCCN(C(=O)CSc3ccncc3)C2)cc1 (centres unmarked)	8.33
CCCCOC(=O)n1c(SCC(=O)N(C)C)nc2ccccc21	-23.9
CC(C)(O)P(C)(=O)c1ccccc1 (centres unmarked)	13.4
O=C(O)c1cccc(S(=O)(=O)N2CCSCC2)c1	-10.8
COCc1c(C(=O)Nc2ccc3nc(N4CCOCC4)sc3c2)oc2ccccc12	-31.2
COc1ccc(S(=O)(=O)NN(C)c2nc(C(F)(F)F)nc3ccccc23)cc1	-4.15
COc1cccc(C2NC(=O)NC(C)=C2C(=O)Nc2ccc(C)cc2)c1OC (centres unmarked)	-6.16
COc1ccccc1NC(=S)NC1CCCCC1	7.03
CC(=O)c1cccc(NS(=O)(=O)N(C)C)c1	15.4
CC(=O)Nc1ccc(C2Nc3cc(C)c(C)cc3NC3=C2C(=O)CC(C)(C)C3)cc1 (centres unmarked)	4.69
OCCN1CCN(c2cc(C(F)(F)F)nc3c(F)cccc23)CC1	-7.86
